The whole screen tested about 50,000 compounds, of which about 800 (1.6%) showed an effect of 50% or more. This is one part of the list.

The target in this assay is Bcl-2-like protein 10 (Homo sapiens) (UniProt Q9HD36). Briefly: TR3 peptide-Bcl-B binding displacers, biochemical primary FP assay, phenotype converters (AID 1240).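 Further: 0% = Bcl-B with tracer peptide and DMSO and 100% = tracer peptide lacking Bcl-B.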 As to conditions: GST-Bcl-B / FITC-TR3 peptide fluorescence polarization; stronger effect = higher value; compound at 3.75 mg/L.
Chain of UniProt Q9HD36 (Q9HD36 whole entry, looked up): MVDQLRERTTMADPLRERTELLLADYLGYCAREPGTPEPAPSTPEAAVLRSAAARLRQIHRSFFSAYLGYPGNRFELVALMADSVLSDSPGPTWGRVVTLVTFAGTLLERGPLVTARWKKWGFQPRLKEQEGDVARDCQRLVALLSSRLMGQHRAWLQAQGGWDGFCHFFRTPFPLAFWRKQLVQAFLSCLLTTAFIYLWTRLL
On to `CS(=O)(=O)N(CC(=O)Nc1ccc(Cl)cc1)c1ccc(Br)cc1`, for which the displacement was 3.3%. The figure for `Cn1c(SCC(=O)N/N=C/c2ccc(O)cc2O)nc2ccccc21` is -11.7%; for `CN(C)Cc1c(O)ccc2c(=O)c(-c3ccc(Cl)cc3)coc12` it is -8.9%. The figure for `CCCCCC(=O)NNC(=O)c1ccc(F)cc1` is 0.5%. Consider `CCOc1cccc(C2C(C(=O)Nc3ccccc3OC)=C(C)NC3=C2C(=O)CCC3)c1` (centres undefined), for which the displacement was 7.6%.

Take `O=C(Nc1ccc(S(=O)(=O)N2CCCCCC2)cc1)c1cccc([N+](=O)[O-])c1`: the displacement was found to be 7.7%.

Consider `CCCOc1cccc(C(=O)Nc2ccc(NC(=O)c3ccc(Cl)cc3Cl)cc2)c1`, for which the displacement was determined as 7.5%.

With `CC(=O)NS(=O)(=O)c1ccc(NC(=O)CCC2CCCC2)cc1`, the displacement is -0.4%.

Consider `CCOC(=O)C1CCN(C(=O)Nc2ccc(Cl)c(Cl)c2)CC1`, for which the displacement was determined as 9.4%.

As for `O=C(NCCC(c1ccccc1)c1ccccc1)c1cc2ccccc2oc1=O`, the displacement was -8.4%. The figure for `COc1cccc(C2/C(=C(/O)c3ccccc3)C(=O)C(=O)N2c2nc3ccccc3s2)c1` (centres undefined) is 4.5%.

Consider `O=C(NCCN1CCOCC1)c1cc(-c2ccccc2)nc2ccccc12`, for which the displacement is -1%. Then `COc1ccc(N(CC(N)=O)S(C)(=O)=O)c(OC)c1`, with -6.1%. The figure for `CCC(/C=C1\N=C(c2cccc(F)c2)OC1=O)=C\c1ccccc1` is -10.7%; for `Cc1ccc(/C=C2\SC(=S)N(CCC(=O)NNC(=O)c3ccccc3O)C2=O)cc1` it is 10%; for `CCOc1ccc(NC(=O)C2=C(C)NC(=S)NC2c2ccc(Br)cc2)cc1` (centres undefined) it is 5.7%. Then `COc1ccccc1NC(=O)C1=C(C)NC(=O)NC1c1ccc([N+](=O)[O-])cc1` (centres undefined), with -2.8%. With `CSc1ccc(/C=N/NC(=O)c2c[nH]c3ccccc23)cc1`, the displacement was -0.8%. Take `O=C1CSC2(O1)C1CC3CC(C1)CC2C3` (centres undefined): the displacement was 16.9%. Regarding `CCOC(=O)c1ccc(NC(=O)C2CN(S(=O)(=O)c3ccccc3)CCN2S(=O)(=O)c2ccccc2)cc1` (centres undefined), the displacement is 11.2%. On to `Cc1ccc(C(=O)CSc2nnnn2-c2ccccc2)c(C)c1`, for which the displacement was -10.4%.

For the molecule `O=C1/C(=C/c2ccccc2)SC(=S)N1c1ccccc1Br`, the displacement was 1.4%. Then `CCOC(=O)C1=C(N)OC2=C(C(=O)CCC2)C1c1cc(C)ccc1C` (centres undefined), with 4.5%; and `COc1cc2nc(-c3ccc(OC(C)=O)cc3)oc(=O)c2cc1OC`, with -3.2%; and `C=CC(=O)Oc1ccc(N2C(=O)C3CC=C(C)CC3C2=O)cc1` (centres undefined), with 4.1%. Then `CNc1ccc2[nH]nc3c2c1C(=O)c1ccccc1-3`, with 173%. With `COc1ccc(C(=O)N2CCN(CCCc3ccccc3)CC2)cc1`, the displacement is -4.6%.

In the case of `Cc1ccc(-c2csc(N)n2)c(C)c1`, the displacement is -5%.

As for `COc1ccc(/C=N/NC(=O)COc2ccccc2Br)cc1`, the displacement is 2.6%. Then `N#CCC(=O)N/N=C/c1cc([N+](=O)[O-])ccc1N1CCCC1`, with -11.5%; and `O=C(CN(c1ccc(Cl)c(C(F)(F)F)c1)S(=O)(=O)c1ccccc1)N1CCOCC1`, with 14.1%; and `CCOc1ccccc1NC(=O)c1c(NC(=O)c2ccco2)sc2c1CCCC2`, with -3.8%. As for `CCOC(=O)C1=NN(C(=O)c2cccc(Br)c2)C(O)(C(C)(C)C)C1` (centres undefined), the displacement was -20.6%.

In the case of `C=CCNC(=S)Nc1ccc(C(=O)OCC)cc1`, the displacement is -3%. Turning to `CCc1cc(C)cc(OCCOc2ccc(C=C3C(=O)NC(=S)NC3=O)cc2)c1`, the displacement is -35.9%. Then `CCn1c(C(O)c2cccc(OC)c2)nc2ccccc21` (centres undefined), with -1%.

As for `COc1cc(C(=O)N/N=C/C2CC=CCC2)ccc1O` (centres undefined), the displacement stood at 19.4%. As to `COc1ccc(OC)c(NC(=O)c2cccc(Cl)c2Cl)c1`, the displacement was found to be 1.8%. As for `O=C(c1ccncc1)N1CCN(C(=O)c2cccc(Cl)c2)CC1`, the displacement was -22%. Take `COc1ccc(C(NC(=O)c2cccc(OC)c2)NC(=O)c2cccc(OC)c2)cc1`: the displacement amounted to 10.3%. Take `COc1ccc(/C=N/Nc2nc(-c3ccc(C)cc3)nc3ccccc23)cc1`: the displacement is 10.1%.

Turning to `Cc1cccc(C)c1NS(=O)(=O)c1ccccc1`, the displacement is 2.3%.

As for `CC(C)OC(=O)c1c(-c2ccc(Cl)cc2)csc1N`, the displacement turned out to be 5.1%. Then `NC(N)=NS(=O)(=O)c1ccc(NC(=S)NC(=O)c2ccc(F)cc2)cc1`, with 10.6%. The figure for `COc1ccc(S(=O)(=O)Nc2ccc([N+](=O)[O-])cc2OC)cc1` is -0.1%; for `C=C(C)CNC(=S)NNC(=O)c1cccc(C)c1[N+](=O)[O-]` it is -14.4%; for `COc1ccc(/C=C2/SC(=S)N(Cc3ccccc3)C2=O)c2ccccc12` it is 60.2%. For `C=C(C)CSc1nnc2n(-c3ccc(OC)cc3)c(=O)c3c4c(sc3n12)COC(C)(C)C4`, the displacement came out at 4.9%. For `Cc1cccc(N2C(=O)CC(N3CCN(c4ccccc4Cl)CC3)C2=O)c1` (centres undefined), the displacement worked out at 13.5%. In the case of `COc1ccc(/C=N/n2cc(-c3ccc(Cl)cc3)nc2N)cc1`, the displacement is -4%. In the case of `C=CCN(CC=C)Cn1[nH]c(=O)ccc1=O`, the displacement was 12.1%. For the molecule `CCOc1ccc(N2C(=O)CC(N3CCN(C(c4ccccc4)c4ccccc4)CC3)C2=O)cc1` (centres undefined), the displacement came out at 5.8%. The figure for `O=C(/C=C/c1ccc(Cl)cc1)NCC1(c2ccccc2)CCOCC1` is -9.1%.

Turning to `COc1cccc(C2/C(=C(\O)c3ccc([N+](=O)[O-])cc3)C(=O)C(=O)N2CCCCCC(=O)O)c1` (centres undefined), the displacement is 0.2%.

Regarding `CCOc1ccccc1C=Nc1ccc(O)cc1`, the displacement was -6.5%. As to `COc1cc(C2C3=C(CC(C)(C)CC3=O)OC3=C2C(=O)CC(C)(C)C3)ccc1OCC(=O)O`, the displacement amounted to 6.5%. Turning to `c1cc2cc(C3=NCCN3)ccc2cc1C1=NCCN1`, the displacement was 13.1%. As to `Cc1ccc(C=C2C(=O)NC(=S)N(c3ccccc3Cl)C2=O)o1`, the displacement turned out to be 15.9%.

Consider `Cc1c(C(=O)OC(C)C)sc(NC(=O)c2ccc(Br)o2)c1C(=O)OC(C)C`, for which the displacement is -2.8%. Then `CC1=C(C#N)c2nc(N)c(C#N)c(C)c2/C1=C\c1ccc(-c2ccc(C(=O)O)cc2)o1`, with 12.2%; and `Cn1nnnc1SCC(=O)NCC(=O)c1ccccc1`, with 0%. For `O=C1NC(=O)/C(=C\c2cc3c(cc2[N+](=O)[O-])OCO3)S1`, the displacement was 6.8%.

Turning to `CCOC(=O)C1=C(C)NC(=O)NC1c1ccsc1` (centres undefined), the displacement was -5.1%.

On to `Cc1ccc(C(=O)/C=C/Nc2ccccc2)cc1`, for which the displacement is -1.8%. The figure for `CC(C)c1ccc(N2C(=O)NC(=O)/C(=C/c3cccc(O)c3)C2=O)cc1` is -16.3%. The figure for `Fc1ccc(NC(=S)NCCN2CCOCC2)cc1` is -14.3%; for `CCOC(=O)c1c(NC(=O)c2ccc([N+](=O)[O-])cc2)sc2c1CCCCC2` it is 12.4%. On to `O=C1S/C(=C/c2ccc(Cl)cc2Cl)C(=O)N1c1ccccc1`, for which the displacement was determined as 8.7%.

As for `CC(=O)C(C)Oc1cc2oc(=O)cc(-c3ccccc3)c2cc1Cl` (centres undefined), the displacement was -4.4%.

Turning to `O=C(NN1C(=O)/C(=C/c2ccc(Br)cc2)SC1=S)c1ccncc1`, the displacement turned out to be 3%. The figure for `COc1cc(/C=N/n2cnnc2)cc(Cl)c1OCCOc1ccc(C(C)(C)C)cc1` is -31.2%; for `COC(=O)c1cc(C(=O)Nc2cc(C)ccn2)cc([N+](=O)[O-])c1` it is 3.9%; for `CCc1c(C)sc(NC(=O)C2CC3CCC2C3)c1C#N` (centres undefined) it is 12%. On to `CCOC(=O)c1c(N2C(=O)C3C4C=CC(O4)C3C2=O)sc2c1CCCC2` (centres undefined), for which the displacement was -3.6%. On to `O=C(O)/C=C\C(=O)Nc1ccc(C(=O)c2ccccc2)cc1`, for which the displacement worked out at 3.2%.

Turning to `CN1CCN(S(=O)(=O)c2ccc3ccccc3c2)CC1`, the displacement is -0.7%.

`COc1ccc(OCC(=O)Nc2ccccc2OC)cc1`: the displacement was -1.1%. The figure for `COc1ccc2c(c1)-c1c(ssc1=S)C(C)(C)N2C(=O)CSc1nnc(C)s1` is 6.1%; for `COc1ccc(COC(=O)NNC(=O)c2ccc(Cl)cc2)cc1` it is 2.1%; for `NC(=O)c1ccccc1NC(=O)c1ccc([N+](=O)[O-])cc1` it is 7.5%. The figure for `O=C(NCc1nc2ncc(Br)cc2[nH]1)c1ccccc1` is 23.1%; for `O=C1C(=O)N(Cc2ccccc2Cl)c2ccccc21` it is 9.3%. The figure for `O=C(O)c1ccc2c(c1)C(=O)N(c1cc(C(=O)c3ccccc3C(=O)O)ccc1Cl)C2=O` is -12.8%.

Regarding `COc1cc(/C=C2/C(=O)NC(=O)N(c3ccc(C)cc3)C2=O)ccc1OCCOc1ccc([N+](=O)[O-])cc1`, the displacement was 10.8%. Turning to `O=C(/C=C/Nc1ccc(F)cc1)c1ccc(Br)cc1`, the displacement was found to be 5.4%. As to `N#Cc1c(-c2ccc(Cl)cc2)cc(-c2ccccc2)[nH]c1=O`, the displacement is -15.6%. Then `Cc1ccc2oc(C(=O)Nc3ccc(-c4nc5ccccc5o4)cc3)c(C)c2c1`, with 39.7%; and `CSc1ccc(S(=O)(=O)N(CC(N)=O)c2ccc(C)cc2)cc1`, with -4.3%.

On to `O=c1cc(-c2ccncc2)oc2ccccc12`, for which the displacement came out at 13%. The figure for `O=C(NCC1CCCO1)c1cc2nc(-c3ccccc3)cc(-c3ccccc3)n2n1` (centres undefined) is 9.8%; for `COc1ccc(N(CC(=O)NC(C)(C)C)S(=O)(=O)c2ccc(C)cc2)c(OC)c1` it is -5%; for `CC(C)COc1ccc(C(=O)NC(C)C2COc3ccccc3O2)cc1` (centres undefined) it is -3.5%. The figure for `Cc1cccc2[nH]c(SCc3ccccc3F)nc12` is -15%; for `COC(=O)CN(c1cc(C)ccc1C)S(=O)(=O)c1ccccc1` it is -6.3%; for `O=C(Nc1sc2c(c1C(=O)O)CCCC2)c1ccc(Cl)cc1` it is -1.3%. The figure for `Clc1cccc(Cc2cnc(Nc3ccccn3)s2)c1Cl` is -3.8%.

`Cc1ccc(C(=O)NCCC(C)C)cc1[N+](=O)[O-]`: the displacement came out at 11.1%. Consider `Cc1ccc(N2CCN(C3=NC(=O)/C(=C/c4ccc(Cl)cc4)S3)CC2)cc1`, for which the displacement was -2.4%. `COc1cc([N+](=O)[O-])cc(/C=C2\C(=O)NC(=O)N(c3ccc(Cl)cc3)C2=O)c1O`: the displacement was -3.8%.

On to `COc1cc(C2NC(=O)NC(C)=C2C(=O)OCCOC(C)C)ccc1OCc1ccccc1` (centres undefined), for which the displacement was 3.9%. For the molecule `c1ccc(C(c2ccccc2)N2CCN(c3ccc4ccccc4n3)CC2)cc1`, the displacement was 2.2%. The figure for `Cc1cccc(C2(c3cccc(C)c3)CC2C(=O)Nc2ccccc2Cl)c1` (centres undefined) is 19.1%; for `S=C(NCc1ccco1)Nc1cccc(Cl)c1` it is -8.2%. `O=C(O)c1cnn2c(C(F)(F)F)cc(-c3cccs3)nc12`: the displacement was found to be 5.9%.

Turning to `Nc1ccc2oc(-c3cccc4c(Br)cccc34)nc2c1`, the displacement was found to be 0.1%. Take `COc1ccccc1N1CCN(C(=O)/C=C/c2ccc(C)cc2)CC1`: the displacement worked out at 2.1%. Then `O=C(Nc1ccc(Oc2ccccc2)cc1)c1cccs1`, with 9.4%; and `Cc1ccc2oc(C(F)(F)F)cc(=O)c2c1`, with 9.9%. The figure for `CC(=O)c1ccc(Nc2nc(-c3ccccc3O)nc3ccccc23)cc1` is -1.9%.

The record behind these values is PubChem BioAssay AID1240 (Sanford-Burnham Center for Chemical Genomics, 2008).
